Among all 300,000 compounds or so, about 22,000 (7.3%) were called active. Inconclusive results, whose numbers are uncertain, are shown with a selection of clear calls. Rule as the data show it: active = activity score below about -60%; inconclusive = mostly about -28% to -61%; inactive = positive scores.
Assay: Activators via SNCA 5'UTR binding, MLPCN (AID 1814)
Conditions: alpha-synuclein 5'UTR reporter, activators screen; hits give low values; tested at 7.5 µM
For `CC(C)(C)c1ccc(OCC(=O)O/N=C(\N)c2ccncc2)cc1`, the activity score was active: -76.7%.
In the case of `COc1ccc(CN=C(C)c2c(C(F)(F)F)[nH]n(-c3nc4ccccc4s3)c2=O)cc1`, the activity score is reported as inconclusive: -49.2%.
With `c1cc(CNC2C3CC4CC(C3)CC2C4)ccn1` (stereo unspecified) the activity score was inconclusive: -59.2%.
With `COc1cccc(NC(=O)c2oc3ccccc3c2NC(=O)c2ccc3c(c2)OCO3)c1` the activity score was inconclusive: -51.6%.
With `O=C(OCc1csc(-c2ccccc2)n1)c1cccs1` the activity score was inconclusive: -43%.
In the case of `Cc1cc(OCC(=O)Nc2ccc(CN3CCOCC3)cc2)c2c(C)c(C)c(=O)oc2c1`, the activity score is reported as inconclusive: -50.9%.
In the case of `COc1ccc(C(=O)NC(=S)Nc2nc(-c3ccc(OC)c(Br)c3)cs2)cc1Br`, the activity score is reported as inconclusive: -49.9%.
In the case of `COc1cc(CNc2ccccc2SC)ccc1O`, the activity score is reported as active: -72.2%.
In the case of `Clc1ccc(SCc2csc(N3CCOCC3)n2)cc1`, the activity score is reported as inconclusive: -57%.
With `O=C(NC1CC1)c1sc2ccccc2c1Cl` the activity score was inconclusive: -50.7%.
For `O=C(c1ccccc1)c1ccc(Oc2ncccn2)cc1`, the activity score was inconclusive: -54.1%.
In the case of `c1ccc(/N=C2\N=C(Nc3ccccn3)c3ccccc32)nc1`, the activity score is reported as inactive: 57.1%.
With `CCCc1ccc(C(=O)O/N=C(\N)c2ccccn2)cc1` the activity score was inactive: 71.7%.
With `CC1CC2(C)Oc3ccccc3CC2C(C)C1CNCCCN(C)C` (stereo unspecified) the activity score was inactive: 106%.
In the case of `O=C(Nc1ccc2nc3n(c(=O)c2c1)CCCCC3)c1ccccn1`, the activity score is reported as inconclusive: -54.4%.
In the case of `COc1ccccc1/C=C/C(=O)Nc1ccc2c(c1)OCCO2`, the activity score is reported as active: -145%.
For `O=C1C2C3C=CC(C4CC34)C2C(=O)N1/N=C/c1c[nH]c2ccccc12` (stereo unspecified), the activity score was active: -141%.
For `Cc1ccc(C(=O)O/N=C(\N)c2ccccn2)c(C)c1`, the activity score was inactive: 106%.
For `C1CCC(c2nn3c(-c4n[nH]c5c4CCC5)nnc3s2)CC1`, the activity score was inactive: 56.2%.
For `Cc1ccc(NC(=O)Cn2nnc(-c3ccccc3NC(=O)c3cccs3)n2)cc1`, the activity score was inactive: 67.2%.
In the case of `COc1ccc(/C=C2\C(=O)NCC(=O)N2Cc2ccccc2)cc1`, the activity score is reported as active: -61.8%.
In the case of `CCOC(=O)c1sc(NC(=O)c2ccco2)c(C#N)c1C`, the activity score is reported as inconclusive: -44.2%.
With `Cc1ccccc1-n1c(SCC(=O)N/N=C/c2c(C)nn(-c3ccccc3)c2C)nc2ccccc2c1=O` the activity score was inactive: 58.3%.
With `O=C(Nc1cccc(Cl)c1Cl)c1cc(S(=O)(=O)NCCc2ccccc2)ccc1F` the activity score was inconclusive: -57.6%.
For `Cc1ccc(/C=N/NC(=O)c2cccs2)cc1[N+](=O)[O-]`, the activity score was active: -107%.
With `O=[N+]([O-])c1cc2c(cc1CN1CCN(c3ccccc3)CC1)OCO2` the activity score was inconclusive: -49.8%.
For `CC1CCN(Cc2nnc(-c3cccc(Br)c3)o2)CC1`, the activity score was inconclusive: -40.5%.
For `Cc1ccc(N/C=C(/C#N)c2ccsc2)cc1C`, the activity score was active: -172%.
For `C#CCNc1ccc(C(=O)OCC)cc1`, the activity score was inconclusive: -60.9%.
In the case of `Cc1cccc(NC(=O)c2ccc([N+](=O)[O-])s2)c1C`, the activity score is reported as inconclusive: -57%.
With `COc1ccccc1C1C=C(c2ccccc2)Nc2nnnn21` (stereo unspecified) the activity score was active: -84%.
For `Cc1cccc(/C=C2/Sc3ccc(C(=O)NCCN4CCCC4)cc3NC2=O)c1`, the activity score was inconclusive: -58%.
In the case of `Cc1nc(Cl)sc1C(=O)Nc1cccc(Cl)c1C`, the activity score is reported as inconclusive: -48.3%.
In the case of `O=C(Nc1nc2cc3c(cc2s1)OCO3)C1=COCCO1`, the activity score is reported as inactive: 94.5%.
For `CCOc1ccc(C(=O)Nc2ccncc2)cc1`, the activity score was inconclusive: -46.5%.
In the case of `Cn1c(C(=O)NCCC2=CCCCC2)cc2c(=O)n3ccccc3nc21`, the activity score is reported as active: -70.2%.
With `O=C(Nc1nccs1)c1cc2c(s1)CCCCC2` the activity score was inactive: 72%.
In the case of `COc1ccc2nc(SCC(=O)N3CCNC3=O)[nH]c2c1`, the activity score is reported as inconclusive: -61%.
With `COc1ccc(CC(=O)Nc2nc(-c3ccncc3)cs2)cc1` the activity score was inconclusive: -59.9%.
For `COc1cccc(OCc2cc(C(=O)N3CCN(C)C(c4ccccc4)C3)no2)c1` (stereo unspecified), the activity score was inconclusive: -58.7%.
With `O=C(Nc1nnc(CC2=CCCCC2)s1)c1cccs1` the activity score was active: -92.7%.
For `Cc1oc(-c2ccccc2)cc1C(=O)NC(Cc1c[nH]c2ccccc12)C(=O)O` (stereo unspecified), the activity score was inconclusive: -43.8%.
For `O=[N+]([O-])c1cc(Br)c(OCc2nnc(-c3ccccc3)o2)c(Br)c1`, the activity score was inconclusive: -36.9%.
With `O=C1/C(=C/c2cccs2)CCC1C1CCCC1` (stereo unspecified) the activity score was inconclusive: -52.9%.
For `C(=N\Nc1nc(-c2ccccc2)cs1)/c1cccs1`, the activity score was active: -233%.
For `O=C(CSc1nnc(-c2cccnc2)o1)Nc1cccc(F)c1`, the activity score was active: -86.2%.
With `COc1ccc(OC)c(NC(=O)c2cc3ccccc3o2)c1` the activity score was inconclusive: -45.5%.
With `Cc1cc(-c2nnc3n2N=C(c2ccc(-c4ccccc4)cc2)CS3)n[nH]1` the activity score was inconclusive: -17.5%.
With `COc1ccc(/C=C2/C(=O)N(c3ccccc3)N=C2C)cc1` the activity score was inactive: 60.8%.
For `OCC1CCCN(C(=S)Nc2ccc(OC(F)F)cc2)C1` (stereo unspecified), the activity score was inconclusive: -59.3%.
With `COc1cc(/C=N/NC(=O)c2ccccn2)ccc1OC(=O)c1ccc(Br)cc1` the activity score was active: -83.5%.
With `Cc1cnn(-c2cc(N/N=C/c3ccc(F)cc3)ncn2)c1` the activity score was active: -85.9%.
For `COc1cccc2c1C(=O)c1c(O)c3c(c(O)c1C2=O)C[C@](O)(C(C)=O)C[C@H]3O[C@@H]1C[C@@H](N)[C@@H](O)[C@@H](C)O1`, the activity score was inactive: 111%.
In the case of `C=CCn1c(NCc2ccccc2O)nc2ccccc21`, the activity score is reported as inconclusive: -52.7%.
With `O=C(O)c1ccc(N/N=C/c2ccc(OC(=O)c3cccc(Cl)c3)cc2)cc1` the activity score was inactive: 76%.
For `COCc1cc(C)nc(Nc2ccc(C)cc2C)c1C#N`, the activity score was inconclusive: -45.4%.
With `O=C(/C=C1\NC2(CCCC2)Cc2ccccc21)C(=O)N/N=C/c1ccccc1O` the activity score was inactive: 74.3%.
In the case of `COc1ccc(/C(N)=N/OC(=O)c2ccco2)cc1OC`, the activity score is reported as active: -142%.
For `C/C(=N\NC(=S)NCc1ccccc1)c1ccc(C)o1`, the activity score was inconclusive: -57.9%.
For `O=c1[nH]c2ccccc2n1CCCSc1cnc2ccccc2n1`, the activity score was active: -63.8%.
With `CC1(C)Cc2c(sc(NC(=S)NC(=O)c3ccccc3)c2C(=O)O)CO1` the activity score was inconclusive: -44%.

From PubChem BioAssay AID1814 (Broad Institute, 2009)
